Data as given in patent publication US9120762B2, “Salts of bicyclo-substituted pyrazolon azo derivatives, preparation method and use thereof” (Jiangsu Hengrui Medicine Co., Ltd., priority 2009, dated 2015).
For some of these results: The name of at least one read-out is uncertain. For some of these results: At least one structure is not confirmed: it was looked up by name or label, or the drawing left a doubt. Some of these results come from one statement about several compounds together.

How the values were obtained:
[1] = biological target: T1, human TPOR (Homo sapiens, UniProt P40238); experiment: Proliferation effect on BAF3-TPOR cell (CCK-8); assay type: cell-based; settings: rate relative to rhTPO positive control
T1 construct: host or cells: BaF3 (murine pro-B cells), stably transfected, G418-selected
T1 sequence (P40238 26-635): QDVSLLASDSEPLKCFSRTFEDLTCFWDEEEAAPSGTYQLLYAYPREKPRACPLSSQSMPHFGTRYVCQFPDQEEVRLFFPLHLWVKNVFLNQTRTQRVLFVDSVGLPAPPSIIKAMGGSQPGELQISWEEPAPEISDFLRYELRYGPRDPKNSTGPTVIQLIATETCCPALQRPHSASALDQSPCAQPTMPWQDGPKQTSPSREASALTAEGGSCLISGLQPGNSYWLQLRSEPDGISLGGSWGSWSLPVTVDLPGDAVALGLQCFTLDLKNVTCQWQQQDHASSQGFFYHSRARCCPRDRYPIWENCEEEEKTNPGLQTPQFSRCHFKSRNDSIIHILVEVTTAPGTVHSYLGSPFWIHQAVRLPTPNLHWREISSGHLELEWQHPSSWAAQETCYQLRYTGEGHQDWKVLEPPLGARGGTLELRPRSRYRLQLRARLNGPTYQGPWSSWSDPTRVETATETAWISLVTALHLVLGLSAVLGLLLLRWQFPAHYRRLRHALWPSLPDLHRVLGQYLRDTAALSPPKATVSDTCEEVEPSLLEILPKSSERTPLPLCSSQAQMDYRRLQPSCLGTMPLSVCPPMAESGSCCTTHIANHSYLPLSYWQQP
Method: (1) Plasmid constructs: based on the TPO receptor (TPOR) sequence information from Entrez (Gene ID: 4325, Refseq: NM_005373), dual-site mutation was performed on EX-B0010-M02 plasmid by using QuikChange® Multi Site Directed Mutagenesis Kit (Stratagene). The sequence of primers containing multi-sites mutation was designed as follows: […]
The E. coli DH5α competent cells were transformed with mutated plasmid, and positive colonies were picked up through ampicillin selection. The mutation result was confirmed by sequence analysis.
(2) BAF3-TPOR stable transfected cell line: the following method was used to construct the BaF3 cell which stably over-expressed functional human TPOR. The successfully mutated EX-B0010-M02 plasmid ([…]) which expressed human TPOR and screening gene neomycin was transfected into wild-type BaF3 cells (1×10^7) by electroporation at 250V for 18 ms using an electric pulse generator (Electro Square Porator ECM830, BTX Division of Genetronic, Inc. US). […]
(2) 1 mL of cell culture media without IL-3 was added to beat upon them to equality, and the number of a suitable amount of cell suspension was counted after dilution. […]
(9) OD value was detected at 450 nm by VICTORS (Perkin Elmer 1420-120) plate reader.
(1) The proliferation rate was calculated as follows: Rate=[(S−B)/(P−B)]*100% […]
(2) The EC50 value was calculated by Origin 7.0 software.

[2] = Solubility assay in water, 0.1% hydrochloric acid and methanol; assay type: physicochemical; settings: 0.1% hydrochloric acid
Method: The solubility was characterized by:
The term “very soluble” refers to that 1 g (mL) of solute can be dissolved in less than 1 mL of solvent;
The term “freely soluble” refers to that 1 g (mL) of solute can be dissolved in from 1 mL to 10 mL, not including 10 mL of solvent;
The term “soluble” refers to that 1 g (mL) of solute can be dissolved in from 10 mL to 30 mL, not including 30 mL of solvent;
The term “sparingly soluble” refers to that 1g (mL) of solute can be dissolved in from 30 mL to 100 mL, not including 100 mL of solvent;
The term “slightly soluble” refers to that 1g (mL) of solute can be dissolved in from 100 mL to 1000 mL, not including 1000 mL of solvent;
The term “very slightly soluble” refers to that 1g (mL) of solute can be dissolved in from 1000 mL to 10000 mL, not including 10000 mL of solvent;
The term “practically insoluble or insoluble” refers to that 1g (mL) of solute cannot be dissolved completely in 10000 mL of solvent.

[3] = Pharmacokinetics assay in rats; assay type: in vivo; settings: SD rats, intragastric, 50 mg/Kg (as free acid)
Method: The compounds of the present disclosure were administrated intragastrically to rats to determine the drug concentration in plasma at different time points by HPLC-UV. The pharmacokinetic behavior of the compounds of the present disclosure was studied and evaluated in rats. […] Healthy adult SD rats, male and female in half, were purchased from SINO-BRITSH SIPPR/BK LAB.ANIMAL LTD., Colo., License number: SCXK (Shanghai) 2003-0002 The test compound was diluted with 1% sodium carboxymethyl cellulose to 5 mg/mL (calculated as the free acid form) of suspension before use. Healthy adult SD rats, male and female in half, were divided into 23 groups. […] The plasma samples were stored at −20° C. until analysis. The rats were fed 2 hours after administration. […] Then the mixture was mixed for 3 minute using a vortexer and centrifuged for 10 minutes at 13,500 rpm. 40 μL of the supernatant was analyzed by HPLC-UV. The compartmental model of pharmacokinetics was fitted for the test compounds and the major pharmacokinetic parameters were calculated in which Cmax and tmax were the actually measured values.

[4] = Pharmacokinetics assay in Beagle dogs; assay type: in vivo; settings: intragastric, 5 mg/kg (as free acid)
Method: The pharmacokinetic behavior of the compounds of the present disclosure was studied and evaluated in Beagle dogs.
12 Healthy adult Beagles dogs, male, were purchased from Suzhou Xishan Drug Research and Development Colo., LTD. License number: SCXK (Suzhou) 2007-0005.
The test compound was diluted with 0.5% sodium carboxymethyl cellulose to 2.5 mg/mL (calculated as the free acid form) of suspension before use.
12 Healthy adult Beagles dogs, male, were divided into 4 groups. After an overnight fast, the dogs were administered intragastrically at a dose of 5.0 mg/kg (calculated as the free acid form), at a volume of 2 mL/kg.
Blood samples (1.2 mL) were taken from vein of forelegs at pre administration and at 0.25, 0.5, 1.0, 1.5, 2.0, 3.0, 5.0, 6.0, 8.0, 12.0, 14.0, 24.0 and 48.0 hours post administration, which were stored in heparinized tubes and centrifuged for 10 minutes at 3,500 rpm. The plasma samples were stored at −20° C. until analysis. […]
50 μL of Beagles dog plasma, obtained at various time points after administration, 20 μL of internal standard solution and 150 μL of methanol was added to result in protein precipitation. […] 50 μL of the supernatant was analyzed by HPLC-UV.
The compartmental model of pharmacokinetics was fitted for the test compounds and the major pharmacokinetic parameters were calculated in which Cmax and tmax were the actually measured values.

## CC1=NN(c2ccc(C)c(C)c2)C(=O)/C1=N\Nc1cccc(-c2cccc(C(=O)O)c2)c1O [Eltrombopag, eltrombopag, reference compound]
[1]
  EC50: 299 nM

## CC1=NN(c2ccc3c(c2)C(C)(C)CC3)C(=O)/C1=N\Nc1cccc(-c2ccc(C(=O)O)o2)c1O.NCCO.NCCO [Example 4, (Z)-5-(3-{N′-[1-(3,3-dimethyl-indan-5-yl)-3-methyl-5-oxo-1,5-dihydro-pyrazol-4-ylidene]-hydrazino}-2-hydroxy-phenyl)-furan-2-carboxylic acid bis-(ethanolamine)]
[2]
  solubility class: very slightly soluble (1g (mL) of solute can be dissolved in from 1000 mL to 10000 mL, not including 10000 mL of solvent)

## CC1=NN(c2ccc3c(c2)CCCC3)C(=O)/C1=N\Nc1cccc(-c2ccc(C(=O)O)o2)c1O.NCCO.NCCO [Example 7, (Z)-5-(2-hydroxy-3-{N′-[3-methyl-5-oxo-1-(5,6,7,8-tetrahydro-naphthalen-2-yl)-1,5-dihydro-pyrazol-4-ylidene]-hydrazino}-phenyl)-furan-2-carboxylic acid bis-(ethanolamine)]
[2]
  solubility class: very slightly soluble (1g (mL) of solute can be dissolved in from 1000 mL to 10000 mL, not including 10000 mL of solvent)

## CC1=NN(c2ccc3c(c2)CCCC3)C(=O)/C1=N\Nc1cccc(-c2ccc(C(=O)O)o2)c1O [Example 8, (Z)-5-(2-hydroxy-3-{N′-[3-methyl-5-oxo-1-(5,6,7,8-tetrahydro-naphthalen-2-yl)-1,5-dihydro-pyrazol-4-ylidene]-hydrazino}-phenyl)-furan-2-carboxylic acid bis-(choline)]
[3]
  Apparent Distribution Volume Vz/F: 8.55 ± 9.08 L/kg
[4]
  Apparent Distribution Volume Vz/F: 9.58 L/kg

## CC1=NN(c2ccc3c(c2)CCCC3)C(=O)/C1=N\Nc1cccc(-c2ccc(C(=O)O)o2)c1O [Example 10]
[3]
  Apparent Distribution Volume Vz/F: 4.54 ± 4.17 L/kg
[4]
  Apparent Distribution Volume Vz/F: 6.81 L/kg
